By inhibition is commonly meant the relative decrease from the control value, in per cent.

The assay has as its target Genome polyprotein (dengue virus type 2) (UniProt P29990).
Where [1] appears, read: Thailand/16681/1984, Concentration 25.0 uM, Number of replicates 1.0.

Out of some 2,000 compounds screened, about 110 (5.5%) showed an effect of 50% or more. This is one part of the list.

On to `N#Cc1ccc(NC(=O)c2cccc(OCc3c(Cl)cccc3Cl)c2)cc1`, for which the inhibition (Thailand/16681/1984, Concentration 49.5 uM, Number of replicates 2.0, Standard deviation 17.67811325168481 %) was found to be 6.75%; the inhibition (Thailand/16681/1984, Concentration 99.01 uM, Number of replicates 2.0, Standard deviation 0.20698957935797424 %) was -7.61%; the inhibition (Thailand/16681/1984, Concentration 198.0 uM, Number of replicates 2.0, Standard deviation 0.09782384691814931 %) is -4.23%.
For `CCS(=O)(=O)Cn1cc(C2CCNCC2)c(C)n1`, the inhibition reads like this: (Thailand/16681/1984, Concentration 49.5 uM, Number of replicates 2.0, Standard deviation 2.7056603724842327 %) -1.53%; (Thailand/16681/1984, Concentration 99.01 uM, Number of replicates 2.0, Standard deviation 2.294245912720445 %) -0.434%; (Thailand/16681/1984, Concentration 198.0 uM, Number of replicates 2.0, Standard deviation 1.6780636236445106 %) 0.44%.
On to `O=Cc1ccc(N2CCC(C(=O)N3CCCN(C(=O)c4cccs4)CC3)CC2)cc1`, for which the inhibition under setting [1] was found to be 12.9%.
`Cc1cc(CO)c2cccc(NC(=O)[C@@H](N)CC(N)=O)c2n1`: the inhibition is, setting by setting: (Thailand/16681/1984, Concentration 49.95 uM, Number of replicates 2.0, Standard deviation 1.8295341709834483 %) -3.67%; (Thailand/16681/1984, Concentration 99.9 uM, Number of replicates 2.0, Standard deviation 6.049352845396267 %) -1.2%.
Regarding `COc1cc(C(=O)N2CCCCC2)nc(N2CCNCC2)n1`, the inhibition was -6.02% (Thailand/16681/1984, Concentration 49.5 uM, Number of replicates 2.0, Standard deviation 0.534757190857495 %); -4.45% (Thailand/16681/1984, Concentration 99.01 uM, Number of replicates 2.0, Standard deviation 0.5656980352863125 %); -3.65% (Thailand/16681/1984, Concentration 198.0 uM, Number of replicates 2.0, Standard deviation 0.017532920393137873 %).
For `CC(=O)N(C)C1CCN(C(=O)C2CCN(c3ccc(C=O)cc3)CC2)CC1`, the inhibition under setting [1] came out at 12.3%.
`C[C@H](NC(=O)C1CCN(c2ccc(C=O)cc2)CC1)c1ccc(Br)cc1`: the inhibition under setting [1] worked out at 12.7%.
Turning to `Nc1ccnc2c(Cl)cccc12`, the inhibition is, setting by setting: (Thailand/16681/1984, Concentration 49.95 uM, Number of replicates 2.0, Standard deviation 2.736837302484984 %) -9.22%; (Thailand/16681/1984, Concentration 99.9 uM, Number of replicates 2.0, Standard deviation 4.13445849353631 %) -8.19%.
On to `O=C(Cn1sc2ccccc2c1=O)Nc1cccc(OCc2cn(CC(=O)Nc3ccccc3Oc3ccccc3)nn2)c1`, for which the inhibition runs as follows: (Thailand/16681/1984, Concentration 49.5 uM, Number of replicates 2.0, Standard deviation 1.838020691812208 %) 3.7%; (Thailand/16681/1984, Concentration 99.01 uM, Number of replicates 2.0, Standard deviation 1.6110447397155796 %) 9.16%; (Thailand/16681/1984, Concentration 198.0 uM, Number of replicates 2.0, Standard deviation 2.762343563679413 %) 9.79%.
In the case of `O[C@@H]1CNC[C@H]1c1c[nH]c2ccccc12`, the inhibition by setting is: (Thailand/16681/1984, Concentration 49.5 uM, Number of replicates 2.0, Standard deviation 0.14303300114814788 %) -1.88%; (Thailand/16681/1984, Concentration 99.01 uM, Number of replicates 2.0, Standard deviation 0.7725694770279107 %) -1.43%; (Thailand/16681/1984, Concentration 198.0 uM, Number of replicates 2.0, Standard deviation 0.830452430949514 %) -0.825%.
Consider `O=Cc1ccc(N2CCC(C(=O)Nc3ncnc4c3ncn4CCO)CC2)cc1`, for which, under setting [1], the inhibition is 14.1%.
Take `c1ccc2sc(C3CCN(Cc4c[nH]c5ccccc45)CC3)nc2c1`: the inhibition reads like this: (Thailand/16681/1984, Concentration 49.5 uM, Number of replicates 2.0, Standard deviation 0.9264282755377183 %) -2.4%; (Thailand/16681/1984, Concentration 99.01 uM, Number of replicates 2.0, Standard deviation 1.1791713356742093 %) -0.136%; (Thailand/16681/1984, Concentration 198.0 uM, Number of replicates 2.0, Standard deviation 0.7079476951080369 %) 1.66%.
Regarding `CC(CNC(=O)C1CCN(c2ccc(C=O)cc2)CC1)(c1ccccc1)c1ccccc1`, the inhibition under setting [1] came out at 1.2%.
On the same count and under the same terms, the result for `O=Cc1ccc(N2CCC(C(=O)Nc3c(Cl)cc(Cl)cc3Br)CC2)cc1` reads 13.4%.
For `CNC(=O)C[C@H]1CCCCN1S(=O)(=O)c1ccc(Oc2ccccc2Cl)cc1`, the inhibition by setting is: (Thailand/16681/1984, Concentration 49.5 uM, Number of replicates 2.0, Standard deviation 0.6403061336392061 %) -1.92%; (Thailand/16681/1984, Concentration 99.01 uM, Number of replicates 2.0, Standard deviation 0.5926288072768489 %) -0.478%; (Thailand/16681/1984, Concentration 198.0 uM, Number of replicates 2.0, Standard deviation 0.4290957159902598 %) 1.47%.
Consider `Cc1cc(CO)c2cccc(Cc3ccccc3C(=O)NCC(=O)O)c2n1`, for which the inhibition is, setting by setting: (Thailand/16681/1984, Concentration 49.95 uM, Number of replicates 2.0, Standard deviation 0.8422599232434016 %) 38.5%; (Thailand/16681/1984, Concentration 99.9 uM, Number of replicates 2.0, Standard deviation 0.5627042603428867 %) 64.9%.
With `CCn1nnc(Cn2ncc(C3CCNCC3)c2C)n1`, the inhibition is, setting by setting: (Thailand/16681/1984, Concentration 49.5 uM, Number of replicates 2.0, Standard deviation 0.7148158612476752 %) 0.727%; (Thailand/16681/1984, Concentration 99.01 uM, Number of replicates 2.0, Standard deviation 0.39019518633906886 %) 1.37%; (Thailand/16681/1984, Concentration 198.0 uM, Number of replicates 2.0, Standard deviation 0.9028682715138255 %) 2.51%.
For `Cc1cc(CO)c2cccc(C[C@H](NC(=O)c3cc(C(F)F)nn3C)C(=O)O)c2n1`, the inhibition turned out to be 1.98% (Thailand/16681/1984, Concentration 49.95 uM, Number of replicates 2.0, Standard deviation 1.4383595761786832 %) and 5.89% (Thailand/16681/1984, Concentration 99.9 uM, Number of replicates 2.0, Standard deviation 0.48778570830386186 %).
`COc1ccccc1[C@H](C)NC(=O)C1CCN(c2ccc(C=O)cc2)CC1`: under setting [1], the inhibition amounted to 12.6%.
For `CC(C)(CO)NC(=O)c1cc(Cl)cc(NC(=O)c2ccc(O)nc2)c1`, the inhibition (Thailand/16681/1984, Concentration 49.5 uM, Number of replicates 2.0, Standard deviation 1.6513087199160978 %) was -2.63%; the inhibition (Thailand/16681/1984, Concentration 99.01 uM, Number of replicates 2.0, Standard deviation 2.6812944153496905 %) is -0.674%; the inhibition (Thailand/16681/1984, Concentration 198.0 uM, Number of replicates 2.0, Standard deviation 14.419090783931495 %) turned out to be 10.7%.
For `CNC(=O)c1cc(Cl)ccc1NS(=O)(=O)Cc1cccnc1`, the inhibition (Thailand/16681/1984, Concentration 49.5 uM, Number of replicates 2.0, Standard deviation 1.2365897154213892 %) is -3.14% and the inhibition (Thailand/16681/1984, Concentration 99.01 uM, Number of replicates 2.0, Standard deviation 0.7189918552918315 %) was -5.5%.
Regarding `CN(Cc1cccc([N+](=O)[O-])c1)C(=O)C1CCN(c2ccc(C=O)cc2)CC1`, the inhibition under setting [1] was determined as 14.4%.

The values above are taken from ChEMBL document CHEMBL5606460, “ASAP - DENV-2 NS2B-NS3 protease fluorescence single point” (2024).
